Measurements from patent US20230404921A1, “LYOTROPIC LIQUID CRYSTALLINE PHASE PARTICLE” (priority 2020, published 2023).

Test system: E. coli O157:H7
Experiment: CFU based cell viability / MIC determination assay
Parameters: species or system Escherichia coli
Settings: for MIC: Escherichia coli

**Q.** How did the CFUs (conc 5 ug/ml) turn out when CO[C@@H]1[C@@H](OC(N)=O)[C@@H](O)[C@H](Oc2ccc3c(O)c(NC(=O)c4ccc(O)c(CC=C(C)C)c4)c(=O)oc3c2C)OC1(C)C [novobiocin, Novobiocin] was run?
**A.** 812

**Q.** What about the CFUs (conc 10 ug/ml) of the same compound?
**A.** 800

**Q.** And the CFUs (conc 20 ug/ml)?
**A.** 476

**Q.** What about the CFUs (conc 30 ug/ml) of the same compound?
**A.** 280

**Q.** What about the CFUs (conc 40 ug/ml) of the same compound?
**A.** 137.5

**Q.** And the CFUs (conc 50 ug/ml)?
**A.** 40

**Q.** How did the MIC (read-out: Minimum inhibitory concentration (90% death)) turn out when CO[C@H]1/C=C/O[C@@]2(C)Oc3c(C)c(O)c4c(O)c(c(/C=N/N5CCN(C)CC5)c(O)c4c3C2=O)NC(=O)/C(C)=C\C=C\[C@H](C)[C@H](O)[C@@H](C)[C@@H](O)[C@@H](C)[C@H](OC(C)=O)[C@@H]1C [rifampicin, Rifampicin] was run?
**A.** 3 to 5 µg/mL (≈ 3.65 to 6.08 µM)

**Q.** Which CFUs (conc 40 ug/ml) does the source give for CC1(C)S[C@@H]2[C@H](NC(=O)Cc3ccccc3)C(=O)N2[C@H]1C(=O)O [BP, Benzyl penicillin] here?
**A.** 732.5

**Q.** And the CFUs (conc 50 ug/ml)?
**A.** 587.5

**Q.** What about the CFUs (conc 80 ug/ml) of the same compound?
**A.** 312.5

**Q.** What about the CFUs (conc 110 ug/ml) of the same compound?
**A.** 340

**Q.** And the CFUs (conc 120 ug/ml)?
**A.** 148.5

**Q.** What about the CFUs (conc 130 ug/ml) of the same compound?
**A.** 3

**Q.** For CC(=O)O[C@H]1C[C@@]2(C)[C@@H](C[C@@H](O)[C@H]3[C@@]4(C)CC[C@@H](O)[C@@H](C)[C@@H]4CC[C@@]32C)/C1=C(\CCC=C(C)C)C(=O)O [Fusidic acid, Fusidic Acid], which MIC (read-out: minimum inhibitory concentration (MIC, 90% inhibition)) is on record?
**A.** 1500 µg/mL (≈ 2900 µM)

In brackets after ≈: the same amount, converted by molar mass. Like-named read-outs stand apart in the source and are kept apart here.
